Molecular target: T1, VEGF165 (UniProt P15692-4 27-191)
T1 construct: also called VEGFA
T1 sequence (looked up): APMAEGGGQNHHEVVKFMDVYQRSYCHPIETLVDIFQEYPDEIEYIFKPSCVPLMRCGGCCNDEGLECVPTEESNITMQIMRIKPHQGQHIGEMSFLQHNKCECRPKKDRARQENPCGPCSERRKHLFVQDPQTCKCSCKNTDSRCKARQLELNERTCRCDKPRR
Assay: ELISA, plate coated with VEGF, anti-human Fc-HRP detection

Kd: 0.05 pM
B1: VEGFR1-NRP1-Fc fusion protein (VEGF Deep Blocker: VEEP) (Fc fusion)
chain: VSDTGRPFVEMYSEIPEIIHMTEGRELVIPCRVTSPNITVTLKKFPLDTLIPDGKRIIWDSRKGFIISNATYKEIGLLTCEATVNGHLYKTNYLTHRQTNTSAIAKEGFSANYSVLQSSVSEDFKCMEALGMESGEIHSDQITASSQYSTNWSAERSRLNYPENGWTPGEDSYREWIQVDLGLLRFVTAVGTQGAISKETKKKYYVKTYKIDVSSNGEDWITIKEGNKPVLFQGNTNPTDVVVAVFPKPLITRFVRIKPATWETGISMRFEVYGCKIT[… human IgG1 Fc …]
